The campaign covered roughly 48,000 compounds. About 550 (1.1%) were called active. Not shown: some 4% with an inconclusive outcome. No stated cut-off is given here; in the data, active means potency below about 15 µM; inconclusive means mostly about 16 µM to 33 µM; inactive means weaker than that. Some of the results follow.
target: Lysosomal acid glucosylceramidase (Homo sapiens) (UniProt P04062); assay: Glucocerebrosidase; conditions: purified enzyme, resorufin glucoside fluorescence (screen aimed at inhibitors), 20 min; series mostly up to 77 µM;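 further: the screen sought inhibitors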
UniProt P04062, sequence (P04062 whole entry, looked up): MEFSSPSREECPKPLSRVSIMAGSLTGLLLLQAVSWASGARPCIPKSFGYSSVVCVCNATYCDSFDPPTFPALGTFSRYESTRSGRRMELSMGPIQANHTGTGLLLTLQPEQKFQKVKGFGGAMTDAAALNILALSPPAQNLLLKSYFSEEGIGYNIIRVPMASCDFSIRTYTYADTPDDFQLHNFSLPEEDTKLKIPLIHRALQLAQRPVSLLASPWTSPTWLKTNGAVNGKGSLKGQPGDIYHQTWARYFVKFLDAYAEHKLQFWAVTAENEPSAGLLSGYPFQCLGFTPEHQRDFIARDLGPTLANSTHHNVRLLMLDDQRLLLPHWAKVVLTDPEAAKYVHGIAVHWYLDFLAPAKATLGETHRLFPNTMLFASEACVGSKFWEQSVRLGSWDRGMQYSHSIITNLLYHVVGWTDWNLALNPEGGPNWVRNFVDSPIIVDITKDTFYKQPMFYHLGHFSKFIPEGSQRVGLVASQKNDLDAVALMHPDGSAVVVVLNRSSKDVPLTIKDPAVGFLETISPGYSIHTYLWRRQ
Procedure, shortened: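 Compounds titrated against 0.2 nM normal enzyme, 30 uM resorufin beta-D-glucopyranoside substrate, citrate/phosphate buffer with taurocholate and tween-20, pH 5.9. Reaction ran 20 min at room temperature; fluorescence (Ex 548/Em 600) gave AC50.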
Potency means the concentration at half of the fitted maximal effect.

Potency, inactive:
CS(=O)(=O)N(CC(=O)Nc1cccnc1)c1ccc2c(c1)OCO2 > 76.9 µM
COc1ccc(C2C(C(=O)NCc3cccnc3)c3ccccc3C(=O)N2C)cc1OC (centres undefined) > 76.9 µM
COc1ccc(C2=Nn3c(nnc3-c3cccnc3)SC2)cc1
CN(C1CCCCC1)S(=O)(=O)c1ccc(NC(=O)C2CCCCC2C(=O)O)cc1 (centres undefined) > 76.9 µM
COc1ccc(C2=CC(c3ccc(Cl)cc3)n3cnnc3N2)cc1OC (centres undefined) > 76.9 µM
CCOC(=O)c1nnc2ccnn2c1N > 76.9 µM
O=C(Nc1ccccc1N1CCN(c2ccc(F)cc2)CC1)C1CCCCC1 > 76.9 µM
O=C(c1ccco1)N1CCN(C(c2ccccc2Cl)c2nnnn2Cc2cccs2)CC1 (centres undefined) > 76.9 µM
COC(=O)N/C(C)=C1/NC(=O)c2ccccc2C(c2ccccc2)N1 (centres undefined) > 76.9 µM
O=C(Cn1cnc2c(cnn2-c2ccc(F)cc2)c1=O)N1CCCc2ccccc21 > 76.9 µM
CCn1c(CC(=O)Nc2ccc(C)cc2)nnc1SCC(=O)N1CCN(c2ccccc2)CC1 > 76.9 µM
Cc1ccc(-c2csc3n[nH]c(=S)n23)cc1 > 76.9 µM
C=CCOc1ccc(CNc2nn[nH]n2)cc1 > 76.9 µM
CCCn1c(SCC(=O)N2c3ccccc3Sc3ccccc32)nc2c1c(=O)n(C)c(=O)n2C > 76.9 µM
O=C1c2ccccc2S(=O)(=O)N1CCOc1ccc(F)cc1 > 76.9 µM
COCC(=O)Nc1nnc(COc2ccccc2)s1 > 76.9 µM
CC1(C)CC(=O)c2cnc(NC(=O)CSc3nc4ccccc4o3)nc2C1 > 76.9 µM
CC(NC(=O)Nc1ccccc1C(F)(F)F)C1CCCO1 (centres undefined) > 76.9 µM
COc1ccc(C2C3=C(N=C4SCC(=O)N42)c2ccccc2CC3)cc1OC (centres undefined) > 76.9 µM
O=S1(=O)CC=C(CSc2nc3ccccc3[nH]2)C1 > 76.9 µM
Fc1cccc2sc(N3CCOCC3)nc12 > 76.9 µM
Cc1cc(Cl)ccc1NC(=O)CSc1nnc(-c2ccncc2)n1Cc1ccco1 > 76.9 µM
Cc1ccc(C2C(C#N)=C(N)Oc3c2oc(CO)cc3=O)o1 (centres undefined) > 76.9 µM
Cc1nc2cc(NC(=O)N3CCN(c4ccccn4)CC3)ccc2o1 > 76.9 µM
COc1ccc(CNC(=O)C2CCCN2S(=O)(=O)c2ccc(S(=O)(=O)N(C)C)cc2)cc1 (centres undefined) > 76.9 µM
COc1ccc(OC)c(-c2cc(C(=O)N3CCc4ccccc4C3)no2)c1 > 76.9 µM
Cc1ccc(S(=O)(=O)N2CCN(S(=O)(=O)N3CCCCC3)CC2)c(C)c1 > 76.9 µM
Cc1cccc(NC(=O)CSc2nnc(-c3ccncc3)n2C)c1 > 76.9 µM
Cc1cnc(NC(=O)C(C)N2C(=O)C3CC=CCC3C2=O)s1 (centres undefined) > 76.9 µM
Cc1ccc(NC(=O)CN2C(=O)COc3ccc(C)cc32)nc1 > 76.9 µM
COc1cc(C2c3c(n[nH]c3C)C(=O)N2c2ccc(Br)cc2)ccc1O (centres undefined) > 76.9 µM
COc1cc(NC(=O)C(C)Oc2ccccc2)cc(OC)c1 (centres undefined) > 76.9 µM
COCCNc1nc2c(c(=O)n(C)c(=O)n2C)n1Cc1cccc(C)c1 > 76.9 µM
COc1ccc(S(=O)(=O)Nc2ccc(S(=O)(=O)N3CCCCC3)cc2)cc1OC > 76.9 µM
COc1ccc(NC(=O)CNCCC2=CCCCC2)cc1 > 76.9 µM
C=CCN(C(=O)CNC(=O)c1ccco1)C(C(=O)NC1CCCCC1)c1ccc(F)cc1 (centres undefined) > 76.9 µM
Cc1ccc(NC(=O)N2CCCC2C(=O)NCCc2ccccc2)cc1 (centres undefined) > 76.9 µM
COc1ccc(S(=O)(=O)N(CC(=O)NCC2CCCO2)c2ccccc2)cc1OC (centres undefined) > 76.9 µM
CCOC(=O)c1nnn(-c2nonc2OC)c1-c1ccccc1 > 76.9 µM
CC1CCc2cc(F)ccc2N1C(=O)CSc1nnc(-c2cccs2)n1C (centres undefined) > 76.9 µM
CCCCc1c(O)nc(SCC(=O)N2CCCCC2)n(-c2ccccc2C)c1=O > 76.9 µM
CC(C)(C)C(=O)NC(=C(Cl)Cl)P(=O)(O)O > 76.9 µM
COc1ccc2nc3oc(C(=O)N4CCN(c5cccc(Cl)c5)CC4)cc3cc2c1 > 76.9 µM
Cc1ccc(C2C(C(=O)c3sc(-c4ccccc4)nc3C)=C(O)C(=O)N2CCN(C)C)o1 (centres undefined) > 76.9 µM
CCCS(=O)(=O)N1CCCC(C(=O)NC2CCCC(C)C2C)C1 (centres undefined) > 76.9 µM
Cc1nnc(NC(=O)CSc2nnnn2Cc2ccccc2)s1
CCCOc1ccc(NC(N)=O)cc1OCCC > 76.9 µM
CC1CCc2ccccc2N1C(=O)c1cccs1 (centres undefined) > 76.9 µM
CC(C)NC(=O)C1CC(=O)N(c2ccc(F)c(Cl)c2)C1 (centres undefined) > 76.9 µM
Cc1nnc(SCCn2c(N3CCCC(C)C3)nc3c2c(=O)[nH]c(=O)n3C)s1 (centres undefined) > 76.9 µM
O=C1C2C(C(=O)N1c1ccncc1)C1C=CC2C12CC2 (centres undefined) > 76.9 µM
c1n[nH]c(SCCCCSc2ncn[nH]2)n1 > 76.9 µM
CCOc1ccc(C(C)=O)cc1N1C(=O)C2C3C=CC(C3=C(C)C)C2C1=O (centres undefined) > 76.9 µM
Cc1cnc(C(=O)Nc2ccc(F)c(F)c2)cn1 > 76.9 µM
CC(=O)Nc1nonc1NC(C)=O > 76.9 µM
c1ccc(-c2nn3c(Cn4nnc5ccccc54)nnc3s2)nc1 > 76.9 µM
c1cc2c(cc1Nc1nc(-c3ccc4c(c3)OCO4)cs1)OCCO2 > 76.9 µM
COc1ccc(C)cc1NC(=O)CCN1CCCC1 > 76.9 µM
COc1ccc(C(=O)NC2=C(C#N)CCC2)cc1OC > 76.9 µM

— PubChem BioAssay AID360 (National Center for Advancing Translational Sciences (NCATS), 2006)
